# Experimental data: paper PMC4336329 (PLoS ONE, 2015)
# Out of some 310,000 compounds screened, about 2,200 (0.71%) showed an effect of 50% or more. The effect is printed as a negative number. The list shows a part of the results.
# Target: human ether-à-go-go-related gene (hERG) potassium channel (human, UniProt Q12809)
# Assay: primary screen, population patch clamp on CHO cells stably expressing hERG
# Chain of human ether-à-go-go-related gene (hERG) potassium channel (Q12809 whole entry, looked up): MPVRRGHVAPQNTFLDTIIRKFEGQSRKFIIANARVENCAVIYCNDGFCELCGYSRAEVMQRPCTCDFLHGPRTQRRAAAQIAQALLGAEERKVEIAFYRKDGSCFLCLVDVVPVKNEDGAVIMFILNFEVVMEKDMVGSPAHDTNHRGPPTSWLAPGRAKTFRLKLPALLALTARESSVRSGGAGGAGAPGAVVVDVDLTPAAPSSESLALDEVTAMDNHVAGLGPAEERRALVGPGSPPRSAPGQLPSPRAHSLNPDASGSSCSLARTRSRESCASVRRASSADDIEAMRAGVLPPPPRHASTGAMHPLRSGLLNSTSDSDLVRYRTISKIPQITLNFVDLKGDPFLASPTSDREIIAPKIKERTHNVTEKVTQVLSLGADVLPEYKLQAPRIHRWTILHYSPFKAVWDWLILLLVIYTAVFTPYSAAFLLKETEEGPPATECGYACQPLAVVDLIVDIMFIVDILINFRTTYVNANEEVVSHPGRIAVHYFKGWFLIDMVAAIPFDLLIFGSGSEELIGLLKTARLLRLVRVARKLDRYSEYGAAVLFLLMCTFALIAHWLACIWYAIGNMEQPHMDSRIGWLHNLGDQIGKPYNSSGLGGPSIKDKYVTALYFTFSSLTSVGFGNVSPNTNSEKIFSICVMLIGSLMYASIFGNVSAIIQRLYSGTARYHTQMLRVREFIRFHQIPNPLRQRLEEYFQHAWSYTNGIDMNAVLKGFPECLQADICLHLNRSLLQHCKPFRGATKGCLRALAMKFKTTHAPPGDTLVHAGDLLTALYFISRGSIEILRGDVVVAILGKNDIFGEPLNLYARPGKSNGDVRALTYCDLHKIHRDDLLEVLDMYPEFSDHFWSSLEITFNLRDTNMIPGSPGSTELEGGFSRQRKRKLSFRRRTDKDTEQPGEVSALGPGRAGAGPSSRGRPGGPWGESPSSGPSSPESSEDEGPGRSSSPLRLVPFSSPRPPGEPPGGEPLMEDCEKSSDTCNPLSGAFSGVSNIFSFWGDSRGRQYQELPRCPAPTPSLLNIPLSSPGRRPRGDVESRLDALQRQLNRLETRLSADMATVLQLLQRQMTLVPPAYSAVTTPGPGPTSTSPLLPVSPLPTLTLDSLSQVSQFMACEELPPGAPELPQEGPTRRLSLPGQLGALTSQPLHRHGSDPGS
row,Structure (SMILES),"hERG current change (%, negative = inhibition) at 1uM"
1,O=C(/C=C/c1ccc(S(=O)(=O)NCc2ccco2)cc1)NCc1cccc(Cl)c1,8.28%
2,N/N=C1\CCCc2nonc21,7.12%
3,Cc1cc(C)nc(NC(=O)c2cc(-c3ccc4c(c3)OCO4)nc3ccccc23)c1,9.32%
4,Cc1cnc(=O)[nH]c1SCc1cccc(C(F)(F)F)c1,13.6%
5,CN(C)CCC(c1ccccc1)c1ccccn1.O=C(O)/C=C/C(=O)O (stereo not drawn),11.7%
6,Clc1cccc(CN2CCN(Cc3nc(CCc4ccccc4)no3)CC2)c1,2.03%
7,Cc1ccc(OCC(=O)Nc2sc3c(c2C#N)CC(C)(C)NC3(C)C)cc1,0.683%
8,O=C(Nc1ccc(Cl)cc1)C1=Cc2ccccc2OC1,1.81%
9,CC(C)C(NC(=O)c1ccccc1F)C(=O)NCc1ccccc1 (stereo not drawn),3.33%
10,CCOc1ccc(S(=O)(=O)N2CCN(c3ccccc3F)CC2)c2cccnc12,4.02%
11,Cc1ccn2c(CNCCCn3cccn3)c(C(=O)N3CCCCCC3)nc2c1,5.76%
12,CCOc1ccc(S(=O)(=O)NCc2cccs2)cc1,-4.12%
13,Cc1nc(N)sc1-c1csc(Nc2ccc(S(N)(=O)=O)cc2)n1,11.5%
14,O=C1C(NS(=O)(=O)c2ccccc2)=C(N2CCN(c3ccc(F)cc3)CC2)C(=O)c2ccccc21,12.1%
15,CC(C)(C)C1CCC(C(=O)OCC(=O)c2ccc[nH]2)CC1 (stereo not drawn),10.2%
16,Cn1c(=O)c2c(nc(SCC(=O)N3CCOCC3)n2C)n(C)c1=O,16.1%
17,CCOC(=O)C1C(=O)NC(SCC(=O)Nc2nccs2)=C(C#N)C1c1ccccc1OCC (stereo not drawn),16.8%
18,CN(C)C=O.Cn1nnnc1SCC(=O)NNC(=O)c1ccc(F)cc1,5.78%
19,CC(C)C1Oc2ccccc2N(CC(=O)NCCCN2C(C)CCCC2C)C1=O (stereo not drawn),0.219%
20,COc1ccc(NC(=O)N2CCCC2C(=O)Nc2ccccc2)cc1 (stereo not drawn),13.9%
21,O=C(Cc1ccc(Cl)cc1Cl)Nc1ccncc1,1.24%
22,O=C(NCC1CCCO1)c1ccc(-c2cccc(C(F)(F)F)c2)o1 (stereo not drawn),5.2%
23,CCCn1c(SCC(=O)Nc2ccc(NC(=O)CC)cc2)nc2c1c(=O)n(C)c(=O)n2C,15.8%

row,Structure (SMILES),"hERG current change (%, negative = inhibition) at 1uM"
1,O=C1c2ccccc2C(=O)N1Cc1ccccn1,13.2%
2,CCC(NC(=O)Cc1c(C)c2ccc(OC)c(C)c2oc1=O)C(=O)NC(Cc1ccc(Cl)cc1)C(=O)O (stereo not drawn),0.501%
3,Cc1cccc(C(=O)NC(=S)Nc2ccc(N3CCOCC3)cc2)c1,12.1%
4,COC(=O)[C@@]1(Cc2ccc(F)cc2)[C@H]2c3cc(C(=O)N(C)C)n(Cc4nc5ccccc5[nH]4)c3C[C@H]2CN1C(=O)c1ccccc1,15.7%
5,Cc1ccc2c(cnn2C(=O)CCC(=O)NC2CCCC2)c1,6.38%
6,Cc1cccc(N2CC(C(=O)Nc3nnc(SCC(=O)Nc4nccs4)s3)CC2=O)c1 (stereo not drawn),0.566%
7,Cc1cc(-c2nnc(SCC(=O)Nc3ccccc3Cl)n2C)no1,6.56%
8,O=C(Nc1cccc(Cl)c1)Nc1ccc2c(c1)OCO2,9.77%
9,CC1CCCC(NC(=O)CNC(=S)N2CC3CC(C2)c2cccc(=O)n2C3)C1C (stereo not drawn),23.5%
10,CC(C)(C)c1ccc(C(=O)NC(=S)Nc2sc3c(c2C#N)CCC3)cc1,7.77%
11,Cc1cc(Nc2ncc(Cl)cc2Cl)n(-c2ccccc2C)n1,-7.76%
12,CN(C)C(CN=C1NS(=O)(=O)c2ccccc21)c1ccco1 (stereo not drawn),6.56%
13,N#Cc1c(N2CCCC2)nsc1-c1ccccc1,16%
14,O=C1C(=C(c2ccccc2)c2ccccc2)Nc2ccccc21,11%
15,Cc1cc(C)n2cc(-c3ccc(Cl)cc3)c(C(=O)O)c2n1,-13.7%
16,c1ccc(-c2noc(CC3CCCCC3)n2)nc1,5.51%
17,CC1Cc2ccccc2N1CC(=O)Nc1ccc(S(N)(=O)=O)cc1 (stereo not drawn),9.52%
18,Cc1cc(C)n(C(=O)Cn2nc(C(F)F)cc2C)n1,19.9%
19,O=C1CC(=O)Nc2cc(S(=O)(=O)Nc3ccc(F)cc3Cl)ccc2N1,-1.42%
20,CCCc1cc(C(=O)NNC(=S)NCC2CCCO2)cs1 (stereo not drawn),7.68%
21,C=CCn1c(SCC(=O)NC2CCCC2)nnc1-c1ccccn1,11.6%
22,Cc1ccc(C(=O)Nc2ccccc2C(=O)NC(C(=O)O)C(C)C)cc1 (stereo not drawn),1.83%
23,O=C(O)c1cnn(-c2nc(-c3ccc(F)cc3)cs2)c1C(F)(F)F,3.08%

row,Structure (SMILES),"hERG current change (%, negative = inhibition) at 1uM"
1,Cc1cccc(CSCc2ccc(C(=O)NCC3CCCO3)o2)c1 (stereo not drawn),1.84%
2,CC(NC(=O)c1ccccc1SCC(=O)N1CCCC1)c1ccc(F)cc1 (stereo not drawn),13%
3,Clc1ccccc1COc1ccccc1-c1nnco1,7.92%
4,COc1ccc(CC(=O)N/N=C(\C)CC(=O)Nc2ccc3c(c2)OCCO3)cc1OC,-1.37%
5,Cc1ccccc1-c1nc2cc(Cl)ccc2c(=O)o1,12.1%
6,Cn1cccc1/C=N/NC(=O)CSc1nc2ccccc2[nH]1,12.4%
7,CCOc1ccccc1NC(=S)N1CCCCCC1,12.3%
8,Cc1cccc2c3c([nH]c12)CCNC3.Cl,15.9%
9,Cc1ccc(OCC(=O)Nc2c[nH]c(=O)[nH]c2=O)cc1C,19.9%
10,COc1ccccc1-n1cnnc1SCC(=O)N1CCOCC1,6.27%
11,O=C1CN2CCC1C/C2=C\c1ccnc2c(Cl)cccc12 (stereo not drawn),3.27%
12,Nc1cc(=O)[nH]c(SCC(=O)Nc2cc(S(=O)(=O)N3CCCCC3)ccc2Cl)n1,17.1%
13,CC(=O)NCCC1CCCCN1Cc1nc(Cc2cccc(C(F)(F)F)c2)no1 (stereo not drawn),26%
14,COc1cc(NC(=O)CSc2nnnn2Cc2ccc3c(c2)OCO3)cc(OC)c1,7.26%
15,O=C(Nc1ccccc1C(=O)N/N=C/c1ccco1)c1ccc(F)cc1,-8.11%
16,O=C(COc1cccc2ccccc12)N/N=C/c1ccncc1,0.844%
17,COc1ccccc1N1CCN(C2CCCN(C(=O)Cn3cccn3)C2)CC1 (stereo not drawn),-1.51%
18,CC(CN1C(C)CCCC1C)OC(=O)c1cccc(Br)c1.Cl (stereo not drawn),5.84%
19,CCOC(=O)c1c(NC(=O)CSc2nnc(-c3ccco3)o2)sc(C(C)=O)c1C,3.75%
20,COc1cc(C(=O)NCc2nnc(SCC(=O)c3ccccc3)o2)cc(OC)c1OC,7.69%
21,COCCNC(=O)c1ccc(NS(=O)(=O)c2cc(C)ccc2C)cc1,0.838%
22,CC(C)CN1C=C2C(=O)C(C)(OC(=O)C3CCCC3)C(=O)C=C2C=C1c1ccsc1 (stereo not drawn),16.3%
23,Cc1nc(SCC(=O)NC(=O)NCCC(C)C)c2c(-c3cccs3)csc2n1,19.7%

row,Structure (SMILES),"hERG current change (%, negative = inhibition) at 1uM"
1,O=C(NCC(=O)N1CCN(S(=O)(=O)c2cccc(F)c2)CC1)c1ccc(Br)o1,-6.98%
2,Cc1ccc(CCN2CC(C(=O)NCCCN3CCCCC3)CC2=O)cc1 (stereo not drawn),4.02%
3,COc1nc(-c2ccccc2)cc(-c2ccc(OC)c(OC)c2)n1,-3.22%
4,CCC(CO)NCc1ccc(OC2CCCC2)cc1.Cl (stereo not drawn),-5.95%
5,O=C(NC1CCCCC1)C(c1ccccc1)N(Cc1cccnc1)C(=O)c1csnn1 (stereo not drawn),11.9%
6,CCOC(=O)c1c(-n2c(C)cc(C=O)c2C)sc2c1CCCC2,2.14%
7,COC(=O)c1cn(CC(=O)NC2CCCCC2)c2ccccc12,3.51%
8,O=C(Nc1cc(C(F)(F)F)ccc1N1CCOCC1)c1cnccn1,4.61%
9,Cc1cccc(N2C(=O)NC(=O)/C(=C/c3ccc(-c4ccc(C(=O)O)c(Cl)c4)o3)C2=O)c1,14.9%
10,N#Cc1ccc(S(=O)(=O)N2CCC(C(=O)N3CCN(Cc4ccc5c(c4)OCO5)CC3)CC2)cc1,-37.5%
11,COc1ccc(C(=O)Nn2c(SCC(=O)c3ccc(Cl)cc3)nc3ccccc3c2=O)cc1,6.84%
12,CC1(C)CN2C(=S)N(c3ccccc3)C(c3ccccc3)N2C1 (stereo not drawn),6.16%
13,COCCn1nnnc1C(c1ccccc1)N1CCN(Cc2ccc3c(c2)OCO3)CC1.Cl (stereo not drawn),3.09%
14,O=C(CCSc1ccccc1)Nc1nc2c(s1)CCCC2,4.98%
15,COc1ccc(CCN2CC(C(=O)N3CCSCC3)CCC2=O)cc1 (stereo not drawn),-1.17%
16,COC(=O)c1cc(S(=O)(=O)NCCN2CCOCC2)cn1C,8.56%
17,Cc1ccc(S(=O)(=O)NCC(C)n2nc(C)cc2C)cc1 (stereo not drawn),16.9%
18,CCN(CC)c1ccc(C(=S)N2CCN(c3ccccc3)CC2)cc1,4.26%
19,Cc1cccc(OC(=O)N2CCOCC2)c1,10.2%
20,COc1cccc(/C=N/Nc2nc(N3CCCC3)nc(N3CCCC3)n2)c1O,9.69%
21,O=C(CSc1nnc(-c2ccccc2)n1-c1ccc(Cl)cc1)NC1CCS(=O)(=O)C1 (stereo not drawn),10.8%
